What was measured:
[1] = system: cabbage Alternaria sooty spot fungi (Alternaia brassicicola); assay: Test Example C: cabbage Alternaria sooty spot, spray treatment of cabbage plants; type: in vivo; settings: cabbage Alternaria sooty spot, spray treatment of cabbage plants
Description: [Test Example C] Cabbage Alternaria Sooty Spot
Test plants (cabbage variety: Shikidori) were cultivated until the cotyledons extended after the sowing of seeds.
<Control Value> Control value=100{1−(n/3)}

[2] = system: wheat brown rust fungi (Puccinia recondita); assay: Test Example E: wheat brown rust, spray treatment of wheat plants; type: in vivo; settings: wheat brown rust, spray treatment of wheat plants
[3] = system: gray mold fungi (Botrytis cinerea); assay: Test Example B: tomato gray mold, spray treatment of tomato plants; settings: tomato gray mold, spray treatment of tomato plants
[4] = system: grape downy mildew fungus (Plasmopara viticola); assay: Test Example G: grape downy mildew, spray treatment of grape plants; settings: grape downy mildew, 250 ppm spray (2.5 ml/pot), 7 to 10 days after inoculation
[5] = system: barley powdery mildew fungi (Blumeria graminis f. sp. hordei); assay: Test Example D: barley powdery mildew, spray treatment of barley plants; settings: barley powdery mildew, spray treatment of barley plants

Structure (SMILES) | Test C control value [1] | Test E control value [2] | Test B control value [3] | Test G control value [4] | Test D control value [5]
Cc1ccc(-n2cc(Br)c(=O)c(Cl)c2-c2c(F)cc(F)cc2F)c(C)c1 [Compound 256] | H (H shows the control value of more than 50%) | H (H shows the control value of more than 50%) | H (H shows the control value of more than 50%) | L (L shows the control value of 50% or less) | L (L shows the control value of 50% or less)
Cc1ccc(-n2cc(Br)c(=O)c(Br)c2-c2c(F)cc(F)cc2F)c(C)c1 [Compound 257] | H (H shows the control value of more than 50%) | H (H shows the control value of more than 50%) | H (H shows the control value of more than 50%) | L (L shows the control value of 50% or less) | L (L shows the control value of 50% or less)
Cc1ccc(-n2cc(Cl)c(=O)c(Br)c2-c2c(F)cc(F)cc2F)c(C)c1 [Compound 258] | H (H shows the control value of more than 50%) | H (H shows the control value of more than 50%) | H (H shows the control value of more than 50%) | L (L shows the control value of 50% or less) | L (L shows the control value of 50% or less)
Cc1ccc(-n2cc(Cl)c(=O)c(Cl)c2-c2c(F)cc(F)cc2F)c(C)c1 [Compound 259] | H (H shows the control value of more than 50%) | H (H shows the control value of more than 50%) | H (H shows the control value of more than 50%) | L (L shows the control value of 50% or less) | L (L shows the control value of 50% or less)
COCn1cc(C)c(=O)c(C)c1-c1c(F)cc(F)cc1F [Compound 260] | L (L shows the control value of 50% or less) | L (L shows the control value of 50% or less) | H (H shows the control value of more than 50%) | L (L shows the control value of 50% or less) | L (L shows the control value of 50% or less)
Cc1ccccc1-n1cc(I)c(=O)c(C)c1-c1c(F)cc(F)cc1F [Compound 261] | H (H shows the control value of more than 50%) | H (H shows the control value of more than 50%) | H (H shows the control value of more than 50%) | H (H shows the control value of more than 50%) | H (H shows the control value of more than 50%)
Cc1ccccc1-n1cc(C)c(=O)c(C)c1-c1ccc(S(C)(=O)=O)cc1 [Compound 263] | L (L shows the control value of 50% or less) | L (L shows the control value of 50% or less) | H (H shows the control value of more than 50%) | L (L shows the control value of 50% or less) | L (L shows the control value of 50% or less)
C=CCn1cc(C)c(=O)c(C)c1-c1c(F)cc(F)cc1F [Compound 268] | L (L shows the control value of 50% or less) | H (H shows the control value of more than 50%) | H (H shows the control value of more than 50%) | L (L shows the control value of 50% or less) | H (H shows the control value of more than 50%)
COc1ccc(-n2cc(Cl)c(=O)c(Cl)c2-c2c(F)cc(F)cc2F)c(C)c1 [Compound 270] | H (H shows the control value of more than 50%) | H (H shows the control value of more than 50%) | H (H shows the control value of more than 50%) | H (H shows the control value of more than 50%) | H (H shows the control value of more than 50%)
Cc1ccccc1-n1cc(C)c(=O)c(C)c1-c1ccncc1 [Compound 271] | L (L shows the control value of 50% or less) | L (L shows the control value of 50% or less) | L (L shows the control value of 50% or less) | L (L shows the control value of 50% or less) | L (L shows the control value of 50% or less)
Cc1cc(F)ccc1-n1cc(Br)c(=O)c(Cl)c1-c1c(F)cc(F)cc1F [Compound 274] | H (H shows the control value of more than 50%) | H (H shows the control value of more than 50%) | H (H shows the control value of more than 50%) | L (L shows the control value of 50% or less) | H (H shows the control value of more than 50%)
Cc1cc(F)ccc1-n1cc(Cl)c(=O)c(Br)c1-c1c(F)cc(F)cc1F [Compound 275] | H (H shows the control value of more than 50%) | H (H shows the control value of more than 50%) | H (H shows the control value of more than 50%) | H (H shows the control value of more than 50%) | H (H shows the control value of more than 50%)
Cc1cc(F)ccc1-n1cc(Cl)c(=O)c(Cl)c1-c1c(F)cc(F)cc1F [Compound 276] | H (H shows the control value of more than 50%) | H (H shows the control value of more than 50%) | H (H shows the control value of more than 50%) | L (L shows the control value of 50% or less) | L (L shows the control value of 50% or less)
CC(=O)c1cn(-c2ccccc2C)c(-c2c(F)cc(F)cc2F)c(C)c1=O [Compound 277] | H (H shows the control value of more than 50%) | H (H shows the control value of more than 50%) | H (H shows the control value of more than 50%) | L (L shows the control value of 50% or less) | L (L shows the control value of 50% or less)
COc1cc(F)c(-c2c(Cl)c(=O)c(Br)cn2-c2cc(OC)ccc2C)c(F)c1 [Compound 279] | H (H shows the control value of more than 50%) | H (H shows the control value of more than 50%) | H (H shows the control value of more than 50%) | L (L shows the control value of 50% or less) | H (H shows the control value of more than 50%)
Cc1ccc(O)cc1-n1cc(Br)c(=O)c(Cl)c1-c1c(F)cc(F)cc1F [Compound 280, 5-bromo-3-chloro-1-(5-hydroxy-2-methylphenyl)-2-(2,4,6-trifluorophenyl)pyridin-4(1H)-one] | H (H shows the control value of more than 50%) | H (H shows the control value of more than 50%) | H (H shows the control value of more than 50%) | L (L shows the control value of 50% or less) | L (L shows the control value of 50% or less)
CCc1cn(CC(C)C)c(-c2c(F)cc(F)cc2F)c(CC)c1=O [Compound 281] | H (H shows the control value of more than 50%) | H (H shows the control value of more than 50%) | H (H shows the control value of more than 50%) | L (L shows the control value of 50% or less) | H (H shows the control value of more than 50%)
COCCOc1ccc(C)c(-n2cc(Br)c(=O)c(Cl)c2-c2c(F)cc(F)cc2F)c1 [Compound 282] | L (L shows the control value of 50% or less) | H (H shows the control value of more than 50%) | H (H shows the control value of more than 50%) | H (H shows the control value of more than 50%) | H (H shows the control value of more than 50%)

— patent US11000038B2, “Pyridone compounds and agricultural and horticultural fungicides containing the same as active ingredients” (priority 2017, dated 2021)
